Reference: the supplement of paper PMC11417369
This is one part of the list.

Test system: PF3D7_0420300 AP2 domain 1 (GST-tagged)
Experiment: gcPBM binding intensity (ln(normalized median fluorescence intensity)); higher = stronger DNA binding
Outline: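 Probes on an Agilent 4 × 180k array were primer-extended, double-stranded and 36 bp long, taken from intergenic genomic regions, with negative controls added. GST-tagged P. falciparum DNA-binding domains from E. coli, about 25 μg on average, were applied to the array for 1 h in 1× PBS containing 1% milk, 0.2 mg/ml BSA, 0.5% salmon testes DNA and 0.03% Triton X-100. Binding intensity, obtained after Alexa488 anti-GST antibody detection and a 488 nm scan, is the highest Masliner-normalised natural-log median intensity across replicate spots of either probe orientation.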

Sequence | gcPBM binding intensity (ln)
ATAAATATTGGGTGCACACACATAATATATATATAT [CACACA_site2272] | 9.71
AGGTTCCCAAAATGCACACCAATGAAATTATTTATT [CACACA_site553] | 9.23
AAAATAAAAAATATAACACACAATAAATATATATAT [CACACA_site1926] | 9.84
ATAATCATTTGGATATTCACAATATTTAAAATTAAA [CACACA_negctrl_site909] | 8.84
GAAAAAAAAAAAAAAAAAAAAAAATTCATTTTTTTT [XGTACX_negctrl_site54] | 8.74
ATTTCCTGGCTACTGTGTACTGACCTCCAGACTGCT [XGTACX_site2005] | 9.28
TTTTAACTTTTATATTGTACGTTGTTTATTTTATTT [XGTACX_site7504] | 9.69
TATACAAAATAACTAGCACACATATGTATAAACATA [CACACA_site9236] | 9.63
TACATATTTTTATATACACACAATAATTATTATAAA [CACACA_site1659] | 9.37
TTTTAAATATGCAGATGTACATTATAATGTTTTATT [XGTACX_site2079] | 9.3
GATATGTACTAATACACACACATATAGATTTATATA [CACACA_site6610] | 9.7
TATATTTATTATAACACACACATATATATATTATAT [CACACA_site1061] | 9.7
ATTTTAAATGTTATGCGTACATATTAATCCTACTTA [XGTACX_site1344] | 9.14
TGTTTGAATAACAAAAAAAAAAAAAAAATTAAAAAA [CACACA_negctrl_site1332] | 8.79
TTTTAAAAATCTATATGTACACAATACGTCTATAAA [XGTACX_site5787] | 8.98
AAAAAAAAAAAAAACACACAAACGCTTTTTTTTTTT [CACACA_site686] | 9.35
TATGAAAATGTTCATACACACATAAAAAAAAAAAAA [CACACA_site3236] | 9.34
TACACATACACATACACACGCATAGAAACATACGAA [CACACA_site2137] | 9.68
AAAAAAAAAAAAAAATGTACATATAAATAAATATAT [XGTACX_site7248] | 9.25

Sequence | gcPBM binding intensity (ln)
TAATATCCATATAAAACACACATCAAGGTTGTTAAC [CACACA_site175] | 9.61
ACAACATAGAGGGGCACACACATATATACATAAAAA [CACACA_site6954] | 9.9
AATTCATATACAAAAAGTACAAACGAAAAATAAAAA [XGTACX_site2900] | 9.43
TATGTGCACCCATATACACACACAAATACAATGATA [CACACA_site8295] | 9.81
ATGTTTTATATTATTAATATATATATATATATATAT [CACACA_negctrl_site331] | 9.37
GTTATATAAAAATATTGTACATTCTATATAAAGTCA [XGTACX_site4418] | 9.05
AGGCATAATTAAAAGTAACAATTATGGAAACGGAGT [GTGCAC_negctrl_site623] | 9.55
TTTATTTATTATTAAAGTACTAAATTATATTATTAT [XGTACX_site2565] | 9.05
AAAAAAAAAAAAAACACACACATGCACCTCATATTA [CACACA_site556] | 9.7
AACGAAAACACTACGTGTACCAAATGTCCTGCCAAC [XGTACX_site5735] | 9.37
TATTATATTTGTATGTGTACTTATATGGTTGTAATA [XGTACX_site4548] | 9.49
ATGGAAAAAAAGCATTGTACATTTAAAGAAAAACAG [XGTACX_site6639] | 9.4
AAATATTATCAAACATAAATTATTTTTATCCGTATA [CACACA_negctrl_site771] | 9.13
AATGTATATTATTGCACACATATATAAAATTATGCT [CACACA_site1096] | 9.45
AAAAAAATATAGATCTGTACATATATAAATATATGT [XGTACX_site511] | 9.22
TCTCTAATTTTTAATACACACAAATAAATAAATAAA [CACACA_site216] | 9.21
ATATATGTTAATAATTGTACAAATCGATAATATATA [XGTACX_site5076] | 9.42
ATCTCTATGATATATACACACAAATATACAAAAAAA [CACACA_site6605] | 9.52
ATTTGTGAATATATTCGGTGAACTTTGTTAACACAT [XGTACX_negctrl_site445] | 9.18

Sequence | gcPBM binding intensity (ln)
AATCTAATTAAAATCACACATATATTCGTCGTAATA [CACACA_site5855] | 9.21
ATATATATATATATAACACACGTGTATTTATCTGTA [CACACA_site5922] | 9.42
AAAAAATTAACGAGTGCACACATATTTAGATAAAAT [CACACA_site8958] | 9.61
ATTCCATAAGTAAACACACAAATGCCAAAATTTTAT [CACACA_site7491] | 9.51
ATTCAAAAAAAATCAACACACAGTTACATAGCTCAA [CACACA_site2234] | 9.62
ATATATATATATATGTGTACACAAAAAATATTATAT [XGTACX_site5741] | 9.42
GCACATATATATGAAACACACATGGAAACATCTCTT [CACACA_site3966] | 9.48
ATATAAGGATAACCTAGTACATATTATATGAAACAA [XGTACX_site8459] | 9.3
TACGGTAAATAGTGTTGTACGATACAATTGTTTTCT [XGTACX_site8118] | 9.27
AAAATAAATAAATAAATATATATATATATATATATA [TGCATGCA_negctrl_site558] | 9.05
AAGGGGAAAAAAAAAAGTACACAAACATAGGATAAT [XGTACX_site377] | 9.82
CAATTAAAATGCAACGGTACACATAAAAAAAATAAA [XGTACX_site6216] | 9.61
CCACAAGTATATAGTAGTACAATTTTTTTCTCTTTA [XGTACX_site4403] | 9.29
GTATGAAATTATAATAGTACATATAAATAAAAAAAA [XGTACX_site8955] | 9.33
TATATATAATATATATATATGGAAATTCTTTTAAAT [XGTACX_negctrl_site50] | 8.96
TGTATTATATGTAAATGTACATTTAATATTTTATAT [XGTACX_site4461] | 9.25
TTTTTATAAAATTTTATGAGCTCGGAAAAAATAAAC [GTGCAC_negctrl_site637] | 9.16
ATTTACGCGCTTATTACACACACATACAAATAAGGA [CACACA_site9157] | 9.77
